Data from the GPR68 mutational scans of Howard et al. (2025).
Scores with a large standard error are left out. The source holds two more conditions with little spread; they are left out. Read del as a deletion of the residues named and ins as an insertion between two positions. For some assays here: The concentration of ogerin is not given here.

B1: GPR68, Q15743 (parent)
chain: MGNITADNSSMSCTIDHTIHQTLAPVVYVTVLVVGFPANCLSLYFGYLQIKARNELGVYLCNLTVADLFYICSLPFWLQYVLQHDNWSHGDLSCQVCGILLYENIYISVGFLCCISVDRYLAVAHPFRFHQFRTLKAAVGVSVVIWAKELLTSIYFLMHEEVIEDENQHRVCFEHYPIQAWQRAINYYRFLVGFLFPICLLLASYQGILRAVRRSHGTQKSRKDQIQRLVLSTVVIFLACFLPYHVLLLVRSVWEASCDFAKGVFNAYHFSLLLTSFNCVADPVLYCFVSETTHRDLARLRGACLAFLTCSRTGRAREAYPLGAPEASGKSGAQGEEPELLTKLHPAFQTPNSPGSGGFPTGRLA

Key:
[1] = variants of: B1; assay: cAMP reporter score (Enrich2 score, wild type = 0); higher = more signal; HEK293T, FACS bins
[2] = variants of: B1; assay: surface expression score (Enrich2 score, wild type = 0); higher = more signal; HEK293T, FACS bins

Q49W
cAMP reporter score ([1]; pH 5.5): -0.115
cAMP reporter score ([1]; pH 6): -0.455
cAMP reporter score ([1]; pH 6, modulator: ogerin): -0.091
cAMP reporter score ([1]; pH 6.5, modulator: ogerin): -0.326
surface expression score [2]: -1.68

Q49F
cAMP reporter score ([1]; pH 5.5): -1.15
cAMP reporter score ([1]; pH 6): -0.724
cAMP reporter score ([1]; pH 6, modulator: ogerin): -1.27
cAMP reporter score ([1]; pH 6.5, modulator: ogerin): -1
surface expression score [2]: -1.79

Q49H
cAMP reporter score ([1]; pH 5.5): 0.648
cAMP reporter score ([1]; pH 6): 0.236
cAMP reporter score ([1]; pH 6, modulator: ogerin): 0.5
cAMP reporter score ([1]; pH 6.5, modulator: ogerin): 0.41
surface expression score [2]: -0.118

Q49D
cAMP reporter score ([1]; pH 5.5): -1.07
cAMP reporter score ([1]; pH 6): -0.67
cAMP reporter score ([1]; pH 6.5, modulator: ogerin): -0.553
surface expression score [2]: -2.95

Q49I
cAMP reporter score ([1]; pH 5.5): -1.12
cAMP reporter score ([1]; pH 6): 0.04
cAMP reporter score ([1]; pH 6, modulator: ogerin): -0.977
cAMP reporter score ([1]; pH 6.5, modulator: ogerin): -0.917
surface expression score [2]: -0.987

Q49M
cAMP reporter score ([1]; pH 5.5): -0.084
cAMP reporter score ([1]; pH 6): -0.147
cAMP reporter score ([1]; pH 6, modulator: ogerin): -0.175
cAMP reporter score ([1]; pH 6.5, modulator: ogerin): 0.375
surface expression score [2]: 1.26

Q49L
cAMP reporter score ([1]; pH 5.5): -0.091
cAMP reporter score ([1]; pH 6): -0.802
cAMP reporter score ([1]; pH 6, modulator: ogerin): -0.534
cAMP reporter score ([1]; pH 6.5, modulator: ogerin): -1.1
surface expression score [2]: 1.75

Q49G
cAMP reporter score ([1]; pH 5.5): -1.09
cAMP reporter score ([1]; pH 6): -0.824
cAMP reporter score ([1]; pH 6, modulator: ogerin): -1.73
cAMP reporter score ([1]; pH 6.5, modulator: ogerin): -1.44
surface expression score [2]: -1.91

Q49C
cAMP reporter score ([1]; pH 5.5): -1.09
cAMP reporter score ([1]; pH 6): -0.675
cAMP reporter score ([1]; pH 6.5, modulator: ogerin): -1.03
surface expression score [2]: 0.125

Y44G
cAMP reporter score ([1]; pH 5.5): -1.35
cAMP reporter score ([1]; pH 6): -2.02
cAMP reporter score ([1]; pH 6.5, modulator: ogerin): -1.21
surface expression score [2]: -2.71

Y44Q
cAMP reporter score ([1]; pH 5.5): -1.67
cAMP reporter score ([1]; pH 6): -0.452
cAMP reporter score ([1]; pH 6, modulator: ogerin): -1.44
cAMP reporter score ([1]; pH 6.5, modulator: ogerin): -1.49
surface expression score [2]: -2.58

Y44T
cAMP reporter score ([1]; pH 5.5): -0.642
cAMP reporter score ([1]; pH 6): -0.378
cAMP reporter score ([1]; pH 6, modulator: ogerin): -0.618
cAMP reporter score ([1]; pH 6.5, modulator: ogerin): -0.799
surface expression score [2]: -2.19

Y44P
cAMP reporter score ([1]; pH 5.5): -1.28
cAMP reporter score ([1]; pH 6): -1.2
cAMP reporter score ([1]; pH 6, modulator: ogerin): -2.05
cAMP reporter score ([1]; pH 6.5, modulator: ogerin): -1.51
surface expression score [2]: -1.98

Y44I
cAMP reporter score ([1]; pH 5.5): -0.152
cAMP reporter score ([1]; pH 6): -0.4
cAMP reporter score ([1]; pH 6, modulator: ogerin): 0.098
cAMP reporter score ([1]; pH 6.5, modulator: ogerin): 0.222

Y44K
cAMP reporter score ([1]; pH 5.5): -0.438
cAMP reporter score ([1]; pH 6): -1.25
cAMP reporter score ([1]; pH 6, modulator: ogerin): -1.17
cAMP reporter score ([1]; pH 6.5, modulator: ogerin): -1.8
surface expression score [2]: -1.92

Y44R
cAMP reporter score ([1]; pH 5.5): -1.58
cAMP reporter score ([1]; pH 6, modulator: ogerin): -0.908
cAMP reporter score ([1]; pH 6.5, modulator: ogerin): -0.714

Y44V
cAMP reporter score ([1]; pH 5.5): -0.716
cAMP reporter score ([1]; pH 6): 0.556
cAMP reporter score ([1]; pH 6, modulator: ogerin): -0.887
cAMP reporter score ([1]; pH 6.5, modulator: ogerin): -0.478
surface expression score [2]: -1.65

Y44W
cAMP reporter score ([1]; pH 5.5): -1.07
cAMP reporter score ([1]; pH 6): -0.549
cAMP reporter score ([1]; pH 6, modulator: ogerin): -1.32
cAMP reporter score ([1]; pH 6.5, modulator: ogerin): -0.804
surface expression score [2]: -2.79

Y44L
cAMP reporter score ([1]; pH 5.5): -0.928
cAMP reporter score ([1]; pH 6): -0.311
cAMP reporter score ([1]; pH 6, modulator: ogerin): -1.16
cAMP reporter score ([1]; pH 6.5, modulator: ogerin): -0.641
surface expression score [2]: -1.94

Y44E
cAMP reporter score ([1]; pH 5.5): -1.33
cAMP reporter score ([1]; pH 6, modulator: ogerin): -1.91
cAMP reporter score ([1]; pH 6.5, modulator: ogerin): -2.25
surface expression score [2]: -1.96

Y44S
cAMP reporter score ([1]; pH 5.5): -0.397
cAMP reporter score ([1]; pH 6, modulator: ogerin): -1.08
cAMP reporter score ([1]; pH 6.5, modulator: ogerin): -1.16
surface expression score [2]: -1.5

Y44N
cAMP reporter score ([1]; pH 5.5): -1.36
cAMP reporter score ([1]; pH 6, modulator: ogerin): -2.52
cAMP reporter score ([1]; pH 6.5, modulator: ogerin): -1.49
surface expression score [2]: -1.8

Y44F
cAMP reporter score ([1]; pH 5.5): 0.08
cAMP reporter score ([1]; pH 6, modulator: ogerin): 0.892
cAMP reporter score ([1]; pH 6.5, modulator: ogerin): -0.222
surface expression score [2]: -0.647

Y44H
cAMP reporter score ([1]; pH 5.5): -0.402
cAMP reporter score ([1]; pH 6): -0.918
cAMP reporter score ([1]; pH 6, modulator: ogerin): -1.88
cAMP reporter score ([1]; pH 6.5, modulator: ogerin): -0.519
surface expression score [2]: -2.82

Y44M
cAMP reporter score ([1]; pH 5.5): -0.218
cAMP reporter score ([1]; pH 6): -0.983
cAMP reporter score ([1]; pH 6, modulator: ogerin): -0.088
cAMP reporter score ([1]; pH 6.5, modulator: ogerin): -0.971
surface expression score [2]: -1.33

A52_R53insGS
cAMP reporter score ([1]; pH 5.5): -0.522
cAMP reporter score ([1]; pH 6): -1.32
cAMP reporter score ([1]; pH 6, modulator: ogerin): -1.27
cAMP reporter score ([1]; pH 6.5, modulator: ogerin): -0.509
surface expression score [2]: -2.47

K51_A52insG
cAMP reporter score ([1]; pH 5.5): -1.12
cAMP reporter score ([1]; pH 6): -1.46
cAMP reporter score ([1]; pH 6, modulator: ogerin): -0.491
cAMP reporter score ([1]; pH 6.5, modulator: ogerin): -0.586
surface expression score [2]: -1.91

F45_G46insG
cAMP reporter score ([1]; pH 5.5): -0.12
cAMP reporter score ([1]; pH 6, modulator: ogerin): -1.24
surface expression score [2]: -2.51

K51_A52insGSG
cAMP reporter score ([1]; pH 5.5): -1.79
cAMP reporter score ([1]; pH 6): -1.71
surface expression score [2]: -2.33

Q49_I50insG
cAMP reporter score ([1]; pH 5.5): -1.01
cAMP reporter score ([1]; pH 6): -1.39
cAMP reporter score ([1]; pH 6, modulator: ogerin): -2.12
cAMP reporter score ([1]; pH 6.5, modulator: ogerin): -0.598
surface expression score [2]: -1.94

Y47_L48insGS
cAMP reporter score ([1]; pH 5.5): -1.42
cAMP reporter score ([1]; pH 6): -1.27
cAMP reporter score ([1]; pH 6, modulator: ogerin): -1.36
cAMP reporter score ([1]; pH 6.5, modulator: ogerin): -0.874
surface expression score [2]: -2.06

Q49del
cAMP reporter score ([1]; pH 5.5): -1.65
cAMP reporter score ([1]; pH 6): -0.648
cAMP reporter score ([1]; pH 6, modulator: ogerin): -1.37
cAMP reporter score ([1]; pH 6.5, modulator: ogerin): -1.3
surface expression score [2]: -2.56
